Experimental data reported in paper PMC4336329 (PLoS ONE, 2015).
Screen size: about 310,000 compounds; about 2,200 (0.71%) showed an effect of 50% or more. Effects have a minus sign here. The list shows a part of the results.

Molecular target: human ether-à-go-go-related gene (hERG) potassium channel (human, UniProt Q12809)
Assay: primary screen, population patch clamp on CHO cells stably expressing hERG

Chain of human ether-à-go-go-related gene (hERG) potassium channel (Q12809 whole entry, looked up): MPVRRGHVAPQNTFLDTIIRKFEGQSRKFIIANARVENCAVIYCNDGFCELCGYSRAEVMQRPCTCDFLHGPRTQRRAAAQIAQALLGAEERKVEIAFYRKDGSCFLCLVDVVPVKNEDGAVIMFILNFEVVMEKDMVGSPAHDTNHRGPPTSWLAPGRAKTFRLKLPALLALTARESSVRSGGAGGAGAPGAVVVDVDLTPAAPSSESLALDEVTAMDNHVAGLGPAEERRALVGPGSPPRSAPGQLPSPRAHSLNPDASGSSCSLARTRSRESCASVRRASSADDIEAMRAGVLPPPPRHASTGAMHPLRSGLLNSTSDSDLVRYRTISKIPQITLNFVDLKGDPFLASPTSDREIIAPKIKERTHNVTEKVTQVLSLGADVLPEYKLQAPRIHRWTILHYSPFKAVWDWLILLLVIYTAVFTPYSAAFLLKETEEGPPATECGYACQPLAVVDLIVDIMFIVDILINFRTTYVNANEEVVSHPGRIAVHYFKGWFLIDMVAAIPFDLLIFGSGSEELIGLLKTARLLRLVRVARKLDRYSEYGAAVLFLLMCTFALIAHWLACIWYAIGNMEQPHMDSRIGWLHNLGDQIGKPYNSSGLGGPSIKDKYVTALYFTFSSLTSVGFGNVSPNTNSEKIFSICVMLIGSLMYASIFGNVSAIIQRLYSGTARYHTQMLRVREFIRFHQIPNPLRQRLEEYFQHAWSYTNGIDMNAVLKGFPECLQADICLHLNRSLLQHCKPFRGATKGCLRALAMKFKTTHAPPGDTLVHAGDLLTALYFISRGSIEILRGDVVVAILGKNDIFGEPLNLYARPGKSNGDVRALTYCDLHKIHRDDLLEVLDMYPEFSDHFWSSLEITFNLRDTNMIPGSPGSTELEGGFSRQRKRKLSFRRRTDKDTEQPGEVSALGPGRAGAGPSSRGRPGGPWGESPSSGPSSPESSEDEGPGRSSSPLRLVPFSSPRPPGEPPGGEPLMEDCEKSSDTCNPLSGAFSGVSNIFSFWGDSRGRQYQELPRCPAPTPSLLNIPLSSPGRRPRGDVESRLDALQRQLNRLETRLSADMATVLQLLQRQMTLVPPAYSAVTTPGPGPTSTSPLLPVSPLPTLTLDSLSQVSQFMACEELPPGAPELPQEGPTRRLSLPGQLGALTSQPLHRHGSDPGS

Compound	hERG current change (%, negative = inhibition) at 1uM [%]
COc1ccc(O)c(CN2CCN(C/C=C/c3ccccc3)CC2)c1	-29
COc1cccc(C(=O)N2CCN(C(=O)COc3ccc4ccccc4c3)CC2)c1	-3.85
CN(CC(=O)Nc1ccccc1Cl)C(=O)c1ccc(N2CCCCCC2)c([N+](=O)[O-])c1	10.1
CC1=NN(C(=O)c2ccc(Br)cc2)C(O)(C(F)(F)OC(F)(F)F)C1 (stereo not drawn)	17.2
COc1ccc(C(C(=O)NC(C)(C)C)N(CCc2ccc(OC)c(OC)c2)C(=O)CCC(=O)Nc2cc(C)on2)cc1 (stereo not drawn)	7.78
CCNc1nc(Cl)nc(NC2CCCCC2)n1	15.4
Cc1ccc(S(=O)(=O)N(C)C)cc1NC(=O)c1cccnc1Oc1ccccc1	11.9
Cn1ncc2cc(NC(=S)NC(=O)c3ccccc3)ccc21	3.88
O=C(Nc1ccc2c(c1)OCO2)N1CCN(C/C=C/c2ccccc2)CC1	7.96
CN(CC(O)COc1c(F)cc(Br)cc1F)C1CCCCC1.Cl (stereo not drawn)	-14
CCOC(=O)CSc1nc(C)c2cc(C)c(C)cc2n1	10.4
Cc1ccn2c(Nc3ccccc3)c(-c3ccccn3)nc2c1	3.82
Nc1ccc(S(=O)(=O)NC(=O)c2ccccc2)cc1	6.98
COc1ccc(NC(=O)NC2(C(=O)N3CCCCC3)CCCCC2)cc1	21.7
NNC(=O)c1csc(-c2cccc(C(F)(F)F)c2)n1	0.179
CCc1noc(C)c1C(=O)Nc1ncc(C)s1	3.48
COc1ccc(NC(=O)CN(C)C(=O)c2cc(-c3ccc(Cl)cc3)nc3ccccc23)cc1	8.91
CCOC(=O)c1[nH]c(C)c(C(=O)Nc2ccc3c(c2)OCCO3)c1C	-12.9
Cl.OCCN1CCN(c2ncnc3ccc(Br)cc23)CC1	12.6
Cc1nc(CC(=O)c2c(C)cc(O)cc2O)cs1	11.1
COc1ccc(-c2nn(-c3ccccc3)cc2/C=N/Nc2ccccn2)cc1	12.8
CCOc1ccccc1OCCCC(=O)NNC(=O)c1nn(C)c(=O)c2ccccc12	5.57
COc1cccc(C(=O)c2cn(CC(=O)NCc3ccco3)c3nc(C)ccc3c2=O)c1	-6.17

Compound	hERG current change (%, negative = inhibition) at 1uM [%]
COC(=O)c1cc2c(ccc3ccccc32)oc1=O	7.94
COCCNC(=O)Cn1cnc2c1c(=O)n(C)c(=O)n2C	5.36
Cc1ccc2oc(=O)cc(CN3CCN(Cc4ccccc4)CC3)c2c1	-18.6
COc1ccccc1NC(=O)c1cccc(S(=O)(=O)N2CCN(c3ccccc3)CC2)c1	8.92
CCOC(=O)NC(CC(=O)O)c1ccc(OC)cc1 (stereo not drawn)	6.34
CCOC(=O)c1cnc(SCC(=O)Nc2cc(OC)cc(OC)c2)nc1N	-1.11
O=C(NC(=S)Nc1ccccc1C(=O)O)c1ccc(-c2ccc(Br)cc2)o1	10.9
COC(=O)c1ccccc1NC(=O)c1ccc(Cn2cc(Cl)cn2)o1	2.95
Cc1nccn1CCCN1C(=O)OC2(CCCCC2)C1(C)O (stereo not drawn)	11.6
CS(=O)(=O)N(Cc1ccccc1F)c1ccccc1	10.3
Cc1ccc(OCC(=O)NC(=S)Nc2ccccn2)c(Br)c1	6.22
CCN(CC)CCCNC(=O)c1cn(CCOC)c(=O)c2c1c1ccccc1n2C	9
O=C(CCCO)NC1Cc2ccccc2C1	13.2
Cc1ccsc1C(=O)OCC(=O)Nc1sccc1C(N)=O	-3.16
COc1cccc(CNC(=O)C(C)n2ccc3cc(S(=O)(=O)N4CCCCCC4)ccc32)c1 (stereo not drawn)	8.09
COCCNC(=S)N/N=C(\C)c1ccc(-n2ccnc2)cc1	-17.5
CCOC(=O)Oc1ccc(/C=C2\N=C(C)OC2=O)cc1	21.7
Cn1c(SCC(=O)Nc2cc([N+](=O)[O-])ccc2F)nnc1C(F)(F)F	7.54
COc1cccc(NC(=O)CC(c2ccc(OC(C)C)cc2)c2ccccc2OC)c1 (stereo not drawn)	7.48
COc1ccc(N2CCN(S(=O)(=O)CCNC(=O)C3CC3)CC2)cc1	9.13
Cc1ccc(-c2nnc(N3CCC(C)CC3)c3ccccc23)cc1C	20.6
CCOC(=O)/C(C)=N/NC(=O)c1cccc([N+](=O)[O-])c1	11.4
CCn1nnc2cc(C(=O)NCC(c3ccccc3OC)N(C)C)ccc21 (stereo not drawn)	12

Compound	hERG current change (%, negative = inhibition) at 1uM [%]
COC(=O)c1sc(NC(=O)CSc2nnc(Cn3nnc4ccccc43)n2C)nc1C	1.83
COc1ccc(NC2c3ccccc3C(=O)N2c2cccnc2)cc1 (stereo not drawn)	1.56
CCCn1c(CN2CCN(C(=O)OCC)CC2)nc2cc(NC(=O)C(C)C)ccc21	13
O=C(NCCC1=CCCCC1)C(=O)NCC1OCCCN1S(=O)(=O)c1ccc(F)cc1 (stereo not drawn)	-0.891
CCOC(=O)CCN=Cc1c(O)n(-c2ccc(Br)cc2)c(=O)[nH]c1=O	12
CCN(Cc1ccc(C#CCCO)cc1)CC1CCCN(CCc2cccc(OC)c2)C1 (stereo not drawn)	2.99
Cc1cc(C)n(C(=O)CNC(=O)c2cccs2)n1	11.2
O=C(CN(Cc1ccccc1)C(=O)CCC(=O)Nc1nccs1)NCc1ccccc1	8.01
CC(C)c1ccc(N2C(=O)NC(=O)/C(=C/c3cnc(-c4ccccc4)nc3)C2=O)cc1	1.66
CC(C)N(C(=O)Nc1ccc2nccnc2c1)C(C)C	11.9
COc1ccc(-n2c(SCC(=O)Nc3ccccc3C)nc(O)c(Cc3ccccc3)c2=O)cc1	15.1
O=C(COc1coc(CN2CCN(c3ccccc3)CC2)cc1=O)Nc1ccc(F)cc1	10.4
O=C(CN1CCN(S(=O)(=O)c2ccccc2F)CC1)NC1CCCC1	-0.655
COc1ccc(C(C(=O)NCC2CCCO2)N(C(=O)CNC(=O)c2cccs2)c2ccc(C(C)=O)cc2)cc1OC (stereo not drawn)	18.2
CN(C)S(=O)(=O)Oc1ccccc1C(=O)Nc1ccc(F)cc1	7.84
COc1ccc(NC(=O)c2cnc(SC)nc2C)c(OC)c1	2.63
COCC1CCN(C(=O)C2CCC(=O)N(C3CCCCCC3)C2)CC1 (stereo not drawn)	3.77
OCCCc1nc2ccccc2[nH]1	11.1
Cc1cc(C)cc(N2CCCn3c2nc2c3c(=O)n(CCN3CCOCC3)c(=O)n2C)c1	5.93
COc1ccc(C(=O)CN2CCN(c3ccc(F)cc3)CC2)cc1	-0.388
O=C1CSC(=S)N1c1ccc(O)cc1	14
COC(=O)c1ccc(NC(=O)c2cccc(C)c2[N+](=O)[O-])cc1	7.66
Fc1c(F)c(F)c(N/N=C/c2c[nH]c3ccccc23)c(F)c1F	7.82

Compound	hERG current change (%, negative = inhibition) at 1uM [%]
O=C(Nc1nn[nH]n1)c1ccc(S(=O)(=O)N2CCCCC2)cc1	22.5
O=C(Cc1ccsc1)N1CCc2c([nH]c3ccccc23)C1c1ccccn1 (stereo not drawn)	12.7
Cc1c2c(n3c(nc4ccccc43)c1C#N)N(CCCN(C)C)CC2	3.42
CCNC(=O)c1c(O)c2c([nH]c1=O)CCCC2	12.5
COC(=O)[C@H](Cc1ccccc1)NC(=O)N1Cc2ccccc2C[C@H]1C(=O)OC	12
Cn1nccc1CNC(=O)c1ccnn1C	18.6
Cc1cccc(NC(=S)NNC(=O)c2csc3c2CCC(C)C3)c1 (stereo not drawn)	-5.08
CCOC(=O)c1nc(NCc2cccc(OC)c2)c2ccccc2n1	4.64
CSc1nc(C)cc(-n2cc(F)c(=O)[nH]c2=O)n1	4.14
Cc1c(C)c2ccc(OCC(=O)N3CCC(C(=O)O)(c4ccccc4)CC3)cc2oc1=O	2.47
CCC(=O)NC(c1ccc(C)cc1)c1cc([N+](=O)[O-])c2cccnc2c1O (stereo not drawn)	16.4
CCOc1ccccc1CN1C(=O)NC(C)(c2ccccc2)C1=O (stereo not drawn)	-0.418
CC(C)c1ccccc1NC(=O)COC(=O)c1ccc(Cl)c(S(=O)(=O)N2CCCCCC2)c1	19
COc1ccccc1NC(=O)CC1SC(=N)N(c2ccccc2)C1=O (stereo not drawn)	6.39
Cc1ccc2c(=O)c(C(=O)NCc3cccs3)c[nH]c2c1	14.7
Cc1ccc(N2C(=O)C(CN3CCCCC3)C2c2ccccc2)cc1 (stereo not drawn)	-4.6
CCCc1nnc(NC(=O)c2ccncc2)s1	2.57
COc1ccc(CN(C(=O)/C=C/c2ccccc2Cl)C2CCS(=O)(=O)C2)cc1 (stereo not drawn)	10.5
COc1cc(/C=N/NC(=O)CSc2ccccn2)ccc1OC(C)C	8.09
O=C1/C(=C2\C(=O)N(Cc3ccc(F)cc3)c3ccccc32)SC(=S)N1CCS(=O)(=O)O	10.6
COc1ccc(-c2cccc(NS(=O)(=O)c3cc([N+](=O)[O-])c(C)c([N+](=O)[O-])c3)c2)nn1	15.2
